This assay deals with fibronectin (Homo sapiens, UniProt P02751). Kind of assay: spectrofluorometry titration.

In general, Kd refers to the free concentration of one partner at which half of the binding sites on the other are occupied at equilibrium, for simple one-to-one binding. A low value points to higher affinity.

B1: GPIIb/IIIa (protein)
chain 1: [gap - about 950 residues]
chain 2: GPNICTTRGVSSCQQCLAVSPMCAWCSDEALPLGSPRCDLKENLLKDNCAPESIEFPVSEARVLEDRPLSDKGSGDSSQVTQVSPQRIALRLRPDDSKNFSIQVRQVEDYPVDIYYLMDLSYSMKDDLWSIQNLGTKLATQMRKLTSNLRIGFGAFVDKPVSPYMYISPPEALENPCYDMKTTCLPMFGYKHVLTLTDQVTRFNEEVKKQSVSRNRDAPEGGFDAIMQATVCDEKIGWRNDASHLLVFTTDAKTHIALDGRLAGIVQPNDGQCHVGSDNHYSASTTMDYPSLGLMTEKLSQKNINLIFAVTENVVNLYQNYSELIPGTTVGVLSMDSSNVLQLIVDAYGKIRSKVELEVRDLPEELSLSFNATCLNNEVIPGLKSCMGLKIGDTVSFSIEAKVRGCPQEKEKSFTIKPVGFKDSLIVQVTFDCDCACQAQAEPNSHRCNNGNGTFECGVCRCGPGWLGSQCECSEEDYRPSQQDECSPREGQPVCSQRGECLCGQCVCHSSDFGKITGKYCECDDFSCVRYKGEMCSGHGQCSCGDCLCDSDWTGYYCNCTTRTDTCMSSNGLLCSGRGKCECGSCVCIQPGSYGDTCEKCPTCPDACTFKKECVECKKFDRGALHDENTCNRYCRDEIESVKELKDTGKDAVNCTYKNEDDCVVRFQYYEDSSGKSILYVVEEPECPKGPD
The molecule B1 registered a Kd of 23.7 nM.
